Measurements published in patent US20260240901A1, “COMBINATION OF NITROUS OXIDE AND 5-HT2A RECEPTOR AGONISTS” (Cybin IRL Limited, priority 2022, published 2026).

Columns and labels:
Settings in all cases: 60 min treatment + 60 min room air, DMT-d10 5.6 mg/kg s.c., N2O 50% inhaled
[1] = system: nuclear factor of kappa light polypeptide gene enhancer in B-cells inhibitor, alpha (ikba or Ikβα); assay: RTqPCR gene expression in mouse left frontal cortex: ikba
[2] = system: discs large homolog 4 (dlg4 or psd-95); assay: RTqPCR gene expression in mouse left frontal cortex: dlg4; type: in vivo, mice (C57B16/J)
[3] = system: regulatory associated protein of MTOR complex 1 (rptor); assay: RTqPCR gene expression in mouse left frontal cortex: rptor; type: in vivo, mice (C57B16/J)

SMILES	ikba gene expression, percentage change compared to control (Veh/Air), % mean [1]	dlg4 gene expression, percentage change compared to control (Veh/Air), % mean [2]	rptor gene expression, percentage change compared to control (Veh/Air), % mean [3]
[2H]C([2H])([2H])N(C([2H])([2H])[2H])C([2H])([2H])C([2H])([2H])c1c[nH]c2ccccc12 [DMT-d10]	40.73%	−1.25%	1.97%
[N-]=[N+]=O [N2O, nitrous oxide]	56.11%	−4.46%	17.79%
